According to patent publication US11407811B2, “Fusion protein, preparation method therefor and use thereof” (JIANGSU RONGTAI BIOTECH CO., LTD., priority 2017, dated 2022):

Tests used:
[1] = tested on: lung cancer cell A549; assay: MTT assay, proliferation of lung cancer cell A549; format: cell-based
Procedure: The MTT assay was used to detect the inhibitory effect of the integrin blocker fusion protein obtained in Example 1 on the proliferation of various tumor cells, including melanoma cell B16F10, gastric cancer cell MGC-803, lung cancer cell A549, liver cancer cell Hep-G2, breast cancer cell MDA-MB-231, colon cancer cell HCT-116, human glioma U87, and cervical cancer cell Hela.
The tumor cells were cultured in a 5% CO2 incubator at 37° C. to a density of 90% or more, and collected by trypsinization. The cells were resuspended in the culture liquid and counted under a microscope. The cell concentration was adjusted to 3.0×10^4 cells/mL. The cell suspension was inoculated into a 96-well plate at 100 μL per well and cultured overnight in a 5% CO2 incubator at 37° C. […] After the cells were fully adhered, each dilution was added to a 96-well plate at 100 μL per well, respectively. […] 20 μL of 5 mg/mL MTT was added to each well of a 96-well plate, and incubation was continued for 4 hours. The medium was aspirated and 100 μL of DMSO per well were added to dissolve. The absorbance was measured at 570 nm with a microplate reader with a reference wavelength of 630 nm, and the proliferation inhibition (PI) was calculated. The formula is as follows: […]
where Ntest is the OD value of the test group and Ncontrol is the OD value of the blank control group.
The test was repeated 5 times independently. The results obtained from the test were calculated as mean±SD, and statistical t-test was performed. P<0.05 was considered as a significant difference, and P<0.01 was considered as an extremely significant difference.

[2] = tested on: angiogenesis of chicken embryo chorioallantoic membrane; assay: Chicken embryo chorioallantoic membrane (CAM) angiogenesis assay; format: in vivo; settings: for Blood vessel number / PI: CAM, 72 hours; for inhibitory effect on angiogenesis of CAM: high dose
Description: In this study, CAM assay was used to investigate the activity of fusion protein I, protein II, protein III, protein IV, and protein V to inhibit angiogenesis in vivo. The study has shown that the biosynthesis rate of collagen reached the maximum on the 8th to 11th day of chicken embryo development, which was the most vigorous stage of angiogenesis, and the body's immune system had not yet been fully established at that time, and thus the chicken embryos developed to the 8th day was selected to be administered. […] The following steps were used.
(1) The White Leghorn chicken embryos on day 6 were cultured in a 37° C. incubator at 60%-70% humidity for two days.
(2) A 1.0 cm×1.0 cm window was drilled above the chicken embryo air sac, and the inner membrane was torn off with forceps to expose the chorioallantoic membrane. Lens paper having a diameter of 5 mm was used as a loading carrier, and was placed on the chorioallantoic membrane of the chicken embryo air sac. Filter paper with PBS was used as a blank group, and the administration group was added with different doses of fusion protein.
(3) The chicken embryo air sac was sealed with a sterile transparent tape, and after culturing at 37° C. for 72 hours, the chicken embryo air sac was opened, and a fixative (formaldehyde:acetone=1:1) was added for fixation for 15 minutes. The chorioallantoic membrane to which the lens paper was adhered was taken out, the distribution of the new blood vessels was observed, and the new blood vessels were counted and photographed. Five replicates were set for each dose and the results were statistically analyzed.

[3] = tested on: IL-1β production by mouse peritoneal macrophages; assay: IL-1β production by mouse peritoneal macrophages (ELISA); format: cell-based; settings: for inhibition of IL-1β production: in words
Procedure: (1) IL-1β production: mice were intraperitoneally injected with 1 mL of broth medium containing 6% starch, and three days later, the mouse peritoneal macrophages were aseptically taken, washed twice with a 1640 medium, and the cell concentration was adjusted to 2×10^6 cells/mL, inoculated into a 24-well culture plate at 1 mL/well, incubated for 3 h in a cell incubator, and shaken once every 30 min, so that the cells were allowed to adhere sufficiently. Then, the cells were washed twice with a culture liquid to remove un-adhered cells. […] The supernatant was taken as a sample for testing activity of IL-1β.
(2) Determination of IL-1β content: the detection was performed by using mouse IL-1β enzyme-linked immunosorbent assay kit from R&D company. According to the instructions of the kit, the procedures were as follows: the reaction well for the test samples and different concentrations of standards were sealed with sealing tapes, respectively, incubation was performed at 37° C. for 90 min; the plate was washed four times; a biotinylated antibody working solution (100 μL/well) was added, the reaction well was sealed with sealing tapes, and incubation was performed at 37° C. for 60 min; the plate was washed four times; an enzyme conjugate working solution (100 μL/well) was added, the reaction well was sealed with sealing tapes, incubation was performed at 37° C. for 30 min; the plate was washed four times; a developer (100 μL/well) was added, incubation was performed at 37° C. for 10 to 20 min, a stop solution (100 μL/well) was added and mixed and the OD450 value was measured.

Molecule	A570 nm/A630 nm ([1]; dose 1 μg/mL)	PI (%) ([1]; dose 1 μg/mL)	A570 nm/A630 nm ([1]; dose 2 μg/mL)	PI (%) ([1]; dose 2 μg/mL)	A570 nm/A630 nm ([1]; dose 4 μg/mL)	PI (%) ([1]; dose 4 μg/mL)	A570 nm/A630 nm ([1]; dose 8 μg/mL)	PI (%) ([1]; dose 8 μg/mL)	A570 nm/A630 nm ([1]; dose 16 μg/mL)	PI (%) ([1]; dose 16 μg/mL)	A570 nm/A630 nm ([1]; dose 32 μg/mL)	PI (%) ([1]; dose 32 μg/mL)	A570 nm/A630 nm ([1]; dose 64 μg/mL)	PI (%) ([1]; dose 64 μg/mL)	A570 nm/A630 nm ([1]; dose 128 μg/mL)	PI (%) ([1]; dose 128 μg/mL)	A570 nm/A630 nm ([1]; dose 256 μg/mL)	PI (%) ([1]; dose 256 μg/mL)	Blood vessel number ([2]; 8 μg)	PI ([2]; 8 μg) [%]	also measured
Protein I: IgG1-Fc linked to antiangiogenesis polypeptide EDSM-Y via a flexible linker; SEQ ID NO: 15 (protein) [sequence of human IgG1 Fc not given]GGGGSGGGGSGGGGSFQPVLHLVALNSPLSGGMRGIRGADFQCFQQARAVGLAGTFRAGGGGRGD	0.9036 ± 0.0441	6.72	0.8409 ± 0.0378	13.19	0.7865 ± 0.0417	18.81	0.6665 ± 0.0373	31.20	0.5789 ± 0.0267	40.24	0.4687 ± 0.0384	51.62	0.3323 ± 0.0333	65.70	0.1745 ± 0.0219	81.99	0.0896 ± 0.0233	90.75	93 ± 5	24.39	PI (%) ([1]; dose 16 μg/mL, listed as fusion protein I): about 40%; Blood vessel number ([2]; 32 μg): 76 ± 2; PI ([2]; 32 μg): 38.21%; Blood vessel number ([2]; 128 μg): 50 ± 9; PI ([2]; 128 μg): 59.35%; inhibitory effect on angiogenesis of CAM [2]: ~50%; IL-1β ([3]; dose 8 μg/mL): 731.65 ± 9.76 pg/mL; PI (%) ([3]; dose 8 μg/mL): 13.59%; IL-1β ([3]; dose 32 μg/mL): 470.01 ± 14.36 pg/mL; PI (%) ([3]; dose 32 μg/mL): 44.49%; IL-1β ([3]; dose 128 μg/mL): 318.44 ± 11.33 pg/mL; PI (%) ([3]; dose 128 μg/mL): 62.39%; inhibition of IL-1β production [3]: could significantly inhibit IL-1β production
Protein III: mIgG4-Fc linked to antiangiogenesis polypeptide EDSM-Y via a flexible linker; SEQ ID NO: 19 (protein) [sequence of human IgG4 Fc with S228P F234A L235A (EU numbers) and a few adjoining residues not given]GGGGSGGGGSGGGGSFQPVLHLVALNSPLSGGMRGIRGADFQCFQQARAVGLAGTFRAGGGGRGD	0.9105 ± 0.0332	6.01	0.8560 ± 0.0292	11.63	0.7769 ± 0.0273	19.80	0.6949 ± 0.0316	28.26	0.5897 ± 0.0198	39.12	0.4436 ± 0.0249	54.21	0.3165 ± 0.0217	67.33	0.2116 ± 0.0206	78.16	0.1212 ± 0.0195	87.49	93 ± 7	24.39	PI (%) ([1]; dose 16 μg/mL, listed as protein III): about 40%; Blood vessel number ([2]; 32 μg): 75 ± 1; PI ([2]; 32 μg): 39.02%; Blood vessel number ([2]; 128 μg): 49 ± 10; PI ([2]; 128 μg): 60.16%; inhibitory effect on angiogenesis of CAM [2]: ~50%; IL-1β ([3]; dose 8 μg/mL): 741.77 ± 8.11 pg/mL; PI (%) ([3]; dose 8 μg/mL): 12.40%; IL-1β ([3]; dose 32 μg/mL): 496.11 ± 15.12 pg/mL; PI (%) ([3]; dose 32 μg/mL): 41.41%; IL-1β ([3]; dose 128 μg/mL): 302.13 ± 10.12 pg/mL; PI (%) ([3]; dose 128 μg/mL): 64.32%; inhibition of IL-1β production [3]: could significantly inhibit IL-1β production
